Experimental findings from the supplement of paper PMC12009370 are described below.

Some of the results follow. Repeats are few or missing, and single values can be far off.

Experiment [1] relates to IMR-32. Put plainly: drug sensitivity score (DSS), single drug with vehicle (DSS (score)); higher = more cytotoxic; extreme values may be limits of the assay. The settings on record: 72 h; co-treatment: vehicle (DMSO).
The subject of experiment [2] is SK-N-AS. The experiment is described as above. As to conditions: 72 h; co-treatment: vehicle (DMSO).
Experiment [3] has as its system SK-N-AS. Kind of experiment: drug sensitivity score (DSS) in combination with SL-176 (DSS (score)); higher = more cytotoxic; extreme values may be limits of the assay. As to conditions: 72 h; co-treatment: SL-176 11.2 uM (IC25 in IMR-32).
In experiment [4] the test system is IMR-32. The experiment is described as above. The settings on record: 72 h; co-treatment: SL-176 11.2 uM (IC25 in IMR-32).
Experiment [5] concerns SK-N-AS. Kind of experiment: drug sensitivity score (DSS) in combination with GSK2830371 (DSS (score)); neuroblastoma lines; SL-176 and GSK2830371 are WIP1 inhibitors; higher = more cytotoxic; extreme values may be limits of the assay. The settings on record: 72 h; co-treatment: GSK2830371 at IC25 in IMR-32.
In experiment [6] the test system is IMR-32. Described as above. As to conditions: 72 h; co-treatment: GSK2830371 at IC25 in IMR-32.
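Wherever drug sensitivity score (DSS) in combination with GSK2830371 is given: neuroblastoma cells in 384-well plates, each compound at five concentrations, luminescence read-out, DSS derived from fitted concentration-response curve combining IC50 with minimum and maximum inhibition.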
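Wherever drug sensitivity score (DSS) in combination with SL-176 is given: cells in 384-well plates, luminescence read-out, each screening drug at five concentrations, DSS derived from the fitted concentration-response curve combining IC50 with minimum and maximum inhibition.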
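Wherever drug sensitivity score (DSS), single drug with vehicle is given: 384-well screen with five concentrations per compound and a luminescence read-out, DSS computed from the fitted dose-response curve combining IC50 with minimum and maximum inhibition.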

With `COC(=O)N[C@@H](C)CNc1nccc(-c2cn(C(C)C)nc2-c2cc(Cl)cc(NS(C)(=O)=O)c2F)n1` [Encorafenib], the drug sensitivity score in the experiment on IMR-32 [1] was determined as 0; with SK-N-AS [2] it was 0.9; with SK-N-AS [3] it was 1.4; in the experiment with IMR-32 [4] it was 0; in the experiment on SK-N-AS [5], 0.8; in the experiment on IMR-32 [6], 0.
Regarding `S=c1[nH]cnc2nc[nH]c12` [Mercaptopurine], the drug sensitivity score in the experiment on IMR-32 [1] came out at 3.8; in the experiment with SK-N-AS [2] it was 6.9; in the experiment with SK-N-AS [3], 7.4; in the experiment with IMR-32 [4], 8; with SK-N-AS [5], 7.2; in the experiment with IMR-32 [6] it was 9.4.
For the compound `C[C@]1(c2nc3c(C(N)=O)cccc3[nH]2)CCCN1` [Veliparib], the drug sensitivity score in the experiment on IMR-32 [1] was determined as 8.7; in the experiment with SK-N-AS [2], 0; in the experiment on SK-N-AS [3] it was 0; in the experiment with IMR-32 [4], 7; with SK-N-AS [5], 0; in the experiment on IMR-32 [6], 7.6.
As to `CC(C)(C)c1cc(NC(=O)Nc2ccc(Oc3ccnc4[nH]c(=O)cnc34)cc2F)n(-c2ccccc2)n1`, the drug sensitivity score in the experiment on IMR-32 [1] was determined as 11.4; with SK-N-AS [2], 6.9; with SK-N-AS [3], 6.8; in the experiment with IMR-32 [4], 10.1; with SK-N-AS [5] it was 7.2; in the experiment with IMR-32 [6] it was 11.2.
As for `C[C@H]1C[C@@H]2[C@H]([C@@H](O)C[C@@]3(C)[C@H]2CC[C@]3(O)C(=O)CO)[C@@]2(C)C=CC(=O)C=C12` [Methylprednisolone], the drug sensitivity score was 0 in the experiment on IMR-32 [1]; 0 in the experiment on SK-N-AS [2]; 0 in the experiment with SK-N-AS [3]; 0.6 in the experiment on IMR-32 [4]; 0 with SK-N-AS [5]; 0 in the experiment with IMR-32 [6].
With `Cn1c(Nc2ccc(C(F)(F)F)cc2)nc2cc(Oc3ccnc(-c4ncc(C(F)(F)F)[nH]4)c3)ccc21`, the drug sensitivity score in the experiment with IMR-32 [1] came to 2; in the experiment with SK-N-AS [2] it was 3.6; in the experiment on SK-N-AS [3], 5.4; in the experiment with IMR-32 [4] it was 7.2; in the experiment with SK-N-AS [5], 4.1; in the experiment with IMR-32 [6] it was 5.2.
With `C=CC(=O)Nc1cc2c(Nc3ccc(F)c(Cl)c3)ncnc2cc1OCCCN1CCOCC1` [Canertinib], the drug sensitivity score in the experiment on IMR-32 [1] was determined as 9.4; in the experiment on SK-N-AS [2], 9.2; in the experiment on SK-N-AS [3] it was 9; in the experiment on IMR-32 [4], 8.7; with SK-N-AS [5] it was 9.6; in the experiment with IMR-32 [6], 9.7.
As to `CC(O)c1cc(C(=O)N[C@@H](C)Cn2ccc(-c3ccc(C#N)c(Cl)c3)n2)n[nH]1` (stereo partly drawn), the drug sensitivity score is 0 with IMR-32 [1]; 0.9 in the experiment with SK-N-AS [2]; 0.9 in the experiment with SK-N-AS [3]; 0 in the experiment on IMR-32 [4]; 1.1 in the experiment on SK-N-AS [5]; 0 in the experiment on IMR-32 [6].
